{"source": "the RNAGym collection of RNA variant scans (doi:10.7554/elife.90254)", "parents": {"B1": {"name": "LINE1-mini (parent)", "chain": "GGCAGAGCUCAACACAGCGUGGCAAAGUGGCUGUGGCUAGACUGCC"}}, "note": "Read counts are not given, so values of variants with three or more changes are uncertain.", "data": [{"variants_of": "B1", "test": "self-cleavage, relative activity (ratio to wild type); higher = more cleavage; in vitro, sequencing; the parent is a self-cleaving ribozyme", "values": [{"variant": "GGCAGAGCUGAACACAGCGUGGCCAAGUGGUUGUGGCUAGACUGCC", "note": "[C10G A24C C31U]", "self-cleavage": 0.05}, {"variant": "GGCAGGGCUCAACACAGCGUUGCAAAGUGCCUGUGACUAGACUGGC", "note": "[A6G G21U G30C G36A C45G]", "self-cleavage": 0.03}, {"variant": "GGCAGAGCUCCACAGAGCGUGGCAGAGUGGCUGUGGCUAGAAUGCC", "note": "[A11C C15G A25G C42A]", "self-cleavage": 0.01}, {"variant": "GGCAGCGCUCAACACAGCGUGGCAAAGUCGCUGUGGCUAGUUUGCC", "note": "[A6C G29C A41U C42U]", "self-cleavage": 0.09}, {"variant": "GGCAGAGCUGAACACAACGUGGCAAAGUGGCUGUGGCUAGCCUGCC", "note": "[C10G G17A A41C]", "self-cleavage": 0.03}, {"variant": "GGCAGAGCUCAACACAGCGUGGAAAAGUGUCUGUGGCAAGACUGCC", "note": "[C23A G30U U38A]", "self-cleavage": 0.64}, {"variant": "GACAGAGCACAACACAGCGUGGCAAAGUGGCUGUGGCUAUACUGCC", "note": "[G2A U9A G40U]", "self-cleavage": 0.14}, {"variant": "GACAGAGCUCAACACAGCGUGGCAAAGUGGCUAUGGCUAGACUUCC", "note": "[G2A G33A G44U]", "self-cleavage": 0.42}, {"variant": "GGCAAAGCUCAACACAGCGUGGCAAAGUUGCUGUGGCUAGACUGGC", "note": "[G5A G29U C45G]", "self-cleavage": 0.03}, {"variant": "UGCAGAGCUCAACACAGCGUGGCAAAGGGGCUGAGGCUAGACUGGC", "note": "[G1U U28G U34A C45G]", "self-cleavage": 0.06}, {"variant": "GGCAGAGCUCAACAAUGCGUGGCAAAGUGGCUGUGGCUAGACUGCA", "note": "[C15A A16U C46A]", "self-cleavage": 0}, {"variant": "GGCAGAGCUCAACACAGCGUAGCAUAGUGGCUGUGGGUAGACUGCC", "note": "[G21A A25U C37G]", "self-cleavage": 0.02}, {"variant": "GGCAUAGCACAACACAGCGUGGCAAAGUAGCUGUGGCUAGACCGCC", "note": "[G5U U9A G29A U43C]", "self-cleavage": 0.01}, {"variant": "GACAGAGCUCAACCCAGCGUGGCAAAGUGGCUGAGGUUAGACUGCC", "note": "[G2A A14C U34A C37U]", "self-cleavage": 0.02}, {"variant": "GGCAGAGCUCACCACAGCGUGGUAAAGUGGCUGUGUGUAGACUGCC", "note": "[A12C C23U G36U C37G]", "self-cleavage": 0.02}, {"variant": "GGCAGAGCUCAACACAGCGUGGCAAAGUGGCUCUGGCUAGAUAGCC", "note": "[G33C C42U U43A]", "self-cleavage": 0.08}, {"variant": "GGCCGAGCUCAACACAGCGUGGCAAUGUGGCUCGGGCUAGACUGCC", "note": "[A4C A26U G33C U34G]", "self-cleavage": 0.09}, {"variant": "GGCAGAGGUCAACAAAGCGUGGCAAAGUGGGUGUGGCUCGACAGCC", "note": "[C8G C15A C31G A39C U43A]", "self-cleavage": 0.07}, {"variant": "GGCAGAUGUCAAUACAGCGUGGCAAAGUGGCUGUGGCUAGACUGCC", "note": "[G7U C8G C13U]", "self-cleavage": 0.08}, {"variant": "GGCCGAGCUCAACUCAACGUUGCAAAGUGGCUGUGGCUAGACUGCC", "note": "[A4C A14U G17A G21U]", "self-cleavage": 0.11}, {"variant": "GGCAGAGCUCAACACAGCGUGGCGAAUCGGCUGUGGCUAGACUGCC", "note": "[A24G G27U U28C]", "self-cleavage": 0.5}, {"variant": "GGAAGACCUCAACACCGCGUGGCAAAGUGGCUGUGGCUAGACUGCC", "note": "[C3A G7C A16C]", "self-cleavage": 0.09}, {"variant": "GGCAGAGCGCAACACACCGUGGCAAAGUGGCUGCGGCUAGACUGCC", "note": "[U9G G17C U34C]", "self-cleavage": 0.03}, {"variant": "GGAAGAGCUCAACACAGCGUCGCAAAGUGGAUGUGGCUAGACUGCC", "note": "[C3A G21C C31A]", "self-cleavage": 0.12}, {"variant": "GGCAGAGCUCAUCGCAGCGUGGUAAAGUGGCUGUGGCUAGACUGCC", "note": "[A12U A14G C23U]", "self-cleavage": 0.02}, {"variant": "UGCAGAGCUCGACACAGCAUGGCAAAGUGGCUGUGGCUAGACUGCC", "note": "[G1U A11G G19A]", "self-cleavage": 0.04}, {"variant": "GGCUGAGCUCAACACAGCGUGGCAAAGUGGGUGAGGCUAGACUGCC", "note": "[A4U C31G U34A]", "self-cleavage": 0.02}, {"variant": "GGCAGAGCUCAACACUUCGUGGCAAAGUGGCUGUGGAUAGACUGCC", "note": "[A16U G17U C37A]", "self-cleavage": 0.09}, {"variant": "GGCAGAGCUCAACACGGCGAGGCAAACUGGCUGCGGCUAGAAUGCC", "note": "[A16G U20A G27C U34C C42A]", "self-cleavage": 0.02}, {"variant": "GGCAGAGCUCUACACAGCGUGGCAAAGUGUCUGUGGCUAGACUGCU", "note": "[A11U G30U C46U]", "self-cleavage": 0.09}, {"variant": "GGCAGCGCUCAAAACAGCGUGGGAAAGUGGCUAUGGCUAGACUGCC", "note": "[A6C C13A C23G G33A]", "self-cleavage": 0.07}, {"variant": "GGCAGAGCGCAACACAGCGUAGCAAAGUGGCUCUGGCUAGACUGGC", "note": "[U9G G21A G33C C45G]", "self-cleavage": 0.02}, {"variant": "GUCAGAGCUCAACACAGCAUGGGAAAGUGGAUGUGGCUUGACUGCC", "note": "[G2U G19A C23G C31A A39U]", "self-cleavage": 0.06}, {"variant": "GGCAGAGCUCAAAACAGCGUGGAAAAAUGGCUGUGGCUAGACUGCC", "note": "[C13A C23A G27A]", "self-cleavage": 0.12}, {"variant": "GGCAGAGCUCAACACAUCGUGGUAAAGUGGCUGUGGCUUGACUGCC", "note": "[G17U C23U A39U]", "self-cleavage": 0}, {"variant": "CACAGAGCUCAAUACAGCGUGGCAAAGUGGCUGUGGCCAGACUUCC", "note": "[G1C G2A C13U U38C G44U]", "self-cleavage": 0.02}, {"variant": "GUCAGAGGUCAACACAGCGUGGCAAAGUGGCUGUGGCUAUACUGCC", "note": "[G2U C8G G40U]", "self-cleavage": 0.02}, {"variant": "GGCAGUACUCAACACGACGUGGCAAAGUGGCUGUGACUAGACUGCC", "note": "[A6U G7A A16G G17A G36A]", "self-cleavage": 0.28}, {"variant": "GGCAGAGCACAACACGGCGGGGGAAAGCGUCUGUUACUAGACUGCC", "note": "[U9A A16G U20G C23G U28C G30U G35U G36A]", "self-cleavage": 0.03}, {"variant": "GGCACAGCUAAACACAGCGUGGCAAAGCGCCUGUGGCUAGAUUGCC", "note": "[G5C C10A U28C G30C C42U]", "self-cleavage": 0.01}, {"variant": "GGCCGAGCUAUAAACAGCGUCGCAAAGUGGGUGUGGCUAGACUGCC", "note": "[A4C C10A A11U C13A G21C C31G]", "self-cleavage": 0.02}, {"variant": "GGCAGAGCUCAACACAGCGUGGCAAGGUGGUUGUGACUAGUCUGCC", "note": "[A26G C31U G36A A41U]", "self-cleavage": 0.04}, {"variant": "GGCAGAUAUCAACACAGCGUGGCAAACUGGCUGUGGCUAGACUGCC", "note": "[G7U C8A G27C]", "self-cleavage": 0.15}, {"variant": "GUCCGAGCUCAACACAGAGUGGCAAAGUGGCUGUGGCUAGACUGCC", "note": "[G2U A4C C18A]", "self-cleavage": 0.07}, {"variant": "GGCAGAGCUAAACACAGCGUGGCAAAUUGCCUGUGGCUAGACUGCA", "note": "[C10A G27U G30C C46A]", "self-cleavage": 0.01}, {"variant": "GGCAGAACUCAACACAGCAUGGGAAAGUUGCUGUGGCUAGACUGCC", "note": "[G7A G19A C23G G29U]", "self-cleavage": 0.02}, {"variant": "GGCAGAGCUCAACAAACCGUGGCAAAGUGGCUGUGGCUAGUCUGCC", "note": "[C15A G17C A41U]", "self-cleavage": 0.04}, {"variant": "GGCAGAGCUCCACACAGCGUAGCAAUGUAGCUGUGGCUAGACUGCC", "note": "[A11C G21A A26U G29A]", "self-cleavage": 0.1}, {"variant": "GGCAGAGCUCAACACAGCGUGGGAAAGUGGUUGUGGCUAUAGUGCC", "note": "[C23G C31U G40U C42G]", "self-cleavage": 0.02}, {"variant": "GGAAGAGCUCAACACAGGGUGUCCAAGUGGCUGUGGCUAGACUGCC", "note": "[C3A C18G G22U A24C]", "self-cleavage": 0.25}, {"variant": "GGCAGAGCUCAAUACAGCGUGGCAAAGUGGCUGUGUGUAGACUGCA", "note": "[C13U G36U C37G C46A]", "self-cleavage": 0.27}, {"variant": "GGCAGACCUAAACACAGAAUGGCAAAGUGGCUGUGGCUAGACUGCA", "note": "[G7C C10A C18A G19A C46A]", "self-cleavage": 0.02}, {"variant": "GGCAGAGCUCAACACAGCCUGGCAAAGUGACUGCGCCUAGACUGCC", "note": "[G19C G30A U34C G36C]", "self-cleavage": 0.05}, {"variant": "CGCAGAGCUCAACACAGCGUGGCAUAGUGUCUGUGGCUAGACUGCC", "note": "[G1C A25U G30U]", "self-cleavage": 0.08}, {"variant": "GGUAGAGCUCAACCCAGCGUGGCAAAGUCGCUGUGGCUAGACUGCC", "note": "[C3U A14C G29C]", "self-cleavage": 0.03}, {"variant": "GGUAGUGCUCAACACAUCGUGGCAAAGUGGCUGUGGCUGGACUGCC", "note": "[C3U A6U G17U A39G]", "self-cleavage": 0.07}]}]}
